According to PMC4336329 (PLoS ONE, 2015):
The campaign covered roughly 310,000 compounds. About 2,200 (0.71%) showed an effect of 50% or more. The effect is printed as a negative number. The list shows a part of the results.

target: human ether-à-go-go-related gene (hERG) potassium channel (human, UniProt Q12809); assay: primary screen, population patch clamp on CHO cells stably expressing hERG
Sequence (Q12809 whole entry, looked up): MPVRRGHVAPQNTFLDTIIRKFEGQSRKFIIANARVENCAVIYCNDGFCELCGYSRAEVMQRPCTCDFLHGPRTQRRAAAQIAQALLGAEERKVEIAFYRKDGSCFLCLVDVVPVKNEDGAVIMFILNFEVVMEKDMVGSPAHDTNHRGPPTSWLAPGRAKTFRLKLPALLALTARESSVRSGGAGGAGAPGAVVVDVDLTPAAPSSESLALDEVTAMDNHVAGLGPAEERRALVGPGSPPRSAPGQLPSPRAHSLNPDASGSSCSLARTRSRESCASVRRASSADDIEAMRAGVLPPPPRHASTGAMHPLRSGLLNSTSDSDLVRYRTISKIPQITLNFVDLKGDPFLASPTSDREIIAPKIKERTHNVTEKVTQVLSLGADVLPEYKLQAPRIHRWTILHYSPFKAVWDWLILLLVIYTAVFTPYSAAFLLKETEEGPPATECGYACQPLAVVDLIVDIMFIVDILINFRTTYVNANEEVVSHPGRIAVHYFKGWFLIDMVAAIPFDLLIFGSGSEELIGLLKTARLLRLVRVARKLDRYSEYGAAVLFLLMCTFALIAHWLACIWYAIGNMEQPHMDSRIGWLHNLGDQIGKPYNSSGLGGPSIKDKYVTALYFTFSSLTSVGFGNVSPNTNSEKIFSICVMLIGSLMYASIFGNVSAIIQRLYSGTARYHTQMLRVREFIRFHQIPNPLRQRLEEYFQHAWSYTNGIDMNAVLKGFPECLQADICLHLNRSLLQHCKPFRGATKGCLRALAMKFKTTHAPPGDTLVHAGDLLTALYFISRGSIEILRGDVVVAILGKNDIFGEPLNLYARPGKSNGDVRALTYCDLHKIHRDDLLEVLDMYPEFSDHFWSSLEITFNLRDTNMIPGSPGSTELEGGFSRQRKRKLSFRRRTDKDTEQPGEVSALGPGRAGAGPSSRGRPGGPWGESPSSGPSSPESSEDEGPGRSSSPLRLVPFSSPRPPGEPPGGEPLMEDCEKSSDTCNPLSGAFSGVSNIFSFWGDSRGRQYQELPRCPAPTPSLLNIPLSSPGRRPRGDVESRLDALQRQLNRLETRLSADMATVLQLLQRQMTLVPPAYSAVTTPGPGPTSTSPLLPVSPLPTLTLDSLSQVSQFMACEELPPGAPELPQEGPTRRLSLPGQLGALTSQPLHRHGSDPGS

Row | Compound | hERG current change (%, negative = inhibition) at 1uM [%]
1 | CCc1nnc(NC(=O)CSc2nc3ccccc3o2)s1 | 7.02
2 | CNC(=S)N/N=C/c1cc(Br)c(OCc2ccncc2)c(OC)c1 | 15.4
3 | O=C(c1ccc(COc2ccccc2Cl)o1)N1CCCC1 | -3.16
4 | Cc1ccccc1NC(=O)Cn1c(=O)n(Cc2ccccc2)c(=O)c2c(C)c(C)sc21 | 14
5 | COC(=O)C1CCN(C(=O)c2ccc(OC3CCN(Cc4ccccn4)CC3)cc2)CC1 | 7.84
6 | COc1ccc(S(=O)(=O)N(C)C2(C)CCS(=O)(=O)C2)cc1OC (stereo not shown) | 5.78
7 | CCN(CC)c1nc(N2CCOCC2)c(C#N)c2c1CN(C)CC2 | 6.78
8 | COc1ccc(C(C)(C)C)cc1NC(=O)COC(=O)c1cnc(C)cn1 | -1.38
9 | COc1ccc(CCN2CC(C(=O)NCCCn3nc(C)cc3C)CCC2=O)cc1 (stereo not shown) | 0.894
10 | COC(=O)c1c(O)c2c([nH]c1=O)CCCC2 | 10
11 | Cc1nn(C)c(C(=O)NNC(=S)NCC(C)C)c1Cl | 11.6
12 | Cn1c(N)c(C(=O)COC(=O)c2ccc3c(c2)C(=O)N(c2ccc(Cl)cc2)C3=O)c(=O)n(C)c1=O | 1.27
13 | Cn1nnnc1Sc1ncnc2scc(-c3ccc(C#N)cc3)c12 | 9.96
14 | CC(C)c1ccc(NC(=O)CCN2C(=O)c3ccc([N+](=O)[O-])cc3C2=O)cc1 | 5.2
15 | O=C(CSCc1ccccc1)Nc1nccs1 | 6.03
16 | O=C1S/C(=C/c2ccc(N3CCOCC3)o2)C(=O)N1Cc1ccc(F)cc1 | 1.2
17 | COc1cc(C(=O)Nc2cccc(NC(=O)c3cccs3)c2)cc(OC)c1OC | 15.8
18 | OC(CCN1CCC2(CC1)OCCO2)C(F)(F)F (stereo not shown) | 2.04
19 | CC(C)C(c1nnnn1Cc1ccc(F)cc1)N1CCSCC1 (stereo not shown) | -10.8
20 | CCn1cc(Br)c(C(=O)Nc2nccs2)n1 | 9.21
21 | CCOC(=O)c1cc(-c2ccccc2)sc1NC(=O)CC | 4.6
22 | Cc1cccc(-c2nc(CS(=O)CC(=O)NC(C)CCc3ccccc3)c(C)o2)c1 (stereo not shown) | 1.68
23 | O=C(Nc1ccccn1)C(=O)Nc1ccccn1 | 6.89
24 | O=C(NCc1cccnc1)c1ccc(CS(=O)(=O)c2ccc(Br)cc2)o1 | -3.1
25 | Cc1ccc(CCNC(=O)C2CCCN(S(=O)(=O)c3cnc[nH]3)C2)cc1 (stereo not shown) | 7.23
